The text below walks through data of the RNAGym collection of RNA variant scans (doi:10.7554/elife.90254).

B1: LINE1-full (parent)
chain: UACGUAGGUGGUUUUCCCCUGAUAGUGCUAAGGGGGCCUGGAAGUUUGGACUGGGCAGAGCUCAACACAGCGUGGCAAAGUGGCUGUGGCUAGACUGCCUCUCUGGAUUCCUCGUCACUCAGCAGGGCAUCUCUGAGAGAAAUGCC

The source gives no read counts; variants with many changes may rest on few reads.

The variants in the series derive from B1. Briefly: self-cleavage, relative activity (ratio to wild type); higher = more cleavage; in vitro, sequencing; the parent is a self-cleaving ribozyme.
Take AACGUAGGUGGUUUUCCCCUGAUAGUGCUAAGGGGGCCCGGCAGUUUGGACUGGGCAGAGCUCAACACAGCGUGGCAAAGUGGCUGUGGCUAGACUGCCUCUCUGGAUUCCUCGCCACUCAGCAGGGCAUCUCUGAGAGAGAUGCC: the self-cleavage stood at 0.
The same measure for AACGUAGGUGGCUUUCCCCUGAUAGUGCUGAGGGGGCCUGGAAGUUUGGACCGGGCAUAGCUCAACACAGCGUGGCAAAGUGGCUGUGGCUAGACUGCCCCUCUGGAUUCCUCGUCACUCAGCGGGGCGUCUCUGAGAGAAAUGCC: 0.
As to AACGUAGGUGGUUUUCCCCUGAUUGUGCUAAGGGGGCCUGGAAGUUUGGACUGGGCAGAGCCCAACACAGCGUGGCAAAGUGGCUGUGGCUAUACUGCCUCUCUGGAUUCCUCGUCACUCAGCAGGGCAUCUCUGAGAGAAAUGCC, the self-cleavage turned out to be 0.02.
Turning to AACGUAGGUGGUUUUCCCCUGAUAGUGCUAAGGGGGCCUGGAAGUUUGGACUGGGCUGAGCUCAACACAGCGUAGCGAAGUGGCUGUGGCUAGACUGCCUCUCUGGAUUCCUCGUCACUCAGCAGGGCAUCUCUGAGAGAAAUGCC, the self-cleavage is 0.17.
The value for AACGUAGGUGGUUUUCCCCUGAUAGUGCUCAGGGGGCCUGGAAGUUUGGACUGGGCAGAGCUCAACACAGCGUGGCGAAGUGGCUGUGGCUAGACUGCCUCUCUGGAUUCCUCGUCACUCAGCAGGGCAUCUCUGAGAGAAAUGCC was 0; that for AACGUAGGUGGUUUUCCCCUGAUAGUGCUAAGGGGGCCUGGGAGUUUGGACUGGGCAGGGCUCAACACAGCGUGGCAAAGUGGCUGUGGCUAGACUGCCUCUCUGGAUUCCUCGUCACUCAGCAGGGCAUCUCUGAGAGAAAUGCC was 0.47.
The value for AACGUAGGUGGUUUUCCCCUGAUAGUGCUAAGGGGGCCCGGAAGUUUGGACUGGGCAGAGCUCAACACAGCGUGGCAAAGUGGCUGUGGCUAGACUGCCUCUCUGGAUUCCCCGUCACUCAGCAGGGCAUCUCUGAGAGAAAUGCC was 1.04; that for AACGUAGGUGGUAUUCCCCUGAUAGUGCUAAGGGGGCCUGGAAGUUUGGACAGGGCAGAGCUCAACACAGCGUGGCAAAGUGGCUGUGGCUAGACUGCCUCUCUGGAUUCCUCGUCACUCAGCAGGGCAUCUCUGAGAGAAAUGCC was 0.68.
With AACGUAGGUGGUUUUCCCCUGGUAGUGCUAAGGGGGCCUGGAAGUUUGGACUGGGCAGAGCUCAACACAGCGUGGCAAAGUGGCUGUGGCUAGGCUGCUCCUCUGGAUUCCUCGUCACUCAGCAGGGCAUCUCUGAGAGAAAUGCC, the self-cleavage amounted to 0.46.
The value for AACGUAGGUGGUUUUCCCCUGAUAGUGCUAAGGGGGCCUGGAAGUCUGGACUGGGCAGAGCUCAACACAGCGUGGCAAAGUGGCUGUGGCUAGACUGCCUCUCUGGAUUCCUCGUCACUCAGCAGGGCAUCUCUGUGAGAAAUGCC was 0.86; that for AACGUAGGUGGUCUUCCCCUGAUAGUGCUAAGGGGGCCUGGAAGUUUGGACUGGGCAGAGCUCAACACAGCGUGGCAAAGUGGCUGUGGCUAGACUGCCUCUCUGGAUUCCUCGUCACUCAGUAGGGCAUCUCUGAGAGAAAUGCC was 1.29; that for AACGUAGGUGGUUUUCCCCUGGUAGUGCUAAGGGGGCCUGGAAGUUUGGACUGGGCAGGGCUCAACACAGCGUGGCAAAGUGGCUGUGGCUAGACUGCCUCUCUGGAUUCCUCGUCACUCAGUAGGGCAUCUCUGAGAGAAAUGCC was 0.33.
With AACGUAGGUGGUUUUCCCCUGAUAGUGCUAAGGGGGCCUGGAAGUUCGGACUGGGCAGAGCUCAACACAGCGUGGCAAAGUGGCUGUGGCUAGACUGCCUCUCUGGAUUCCUCGCCACUCAGCAGGGCAUCCCUGAGAGAAAUGCC, the self-cleavage turned out to be 0.
The value for AACGUAGGUGGUCUUCCCCCGAUAGUGCUAAGGGGGCCUGGAAGUUUGGACUGGGCAGAGCUCAACACAGCGUGGCAAAGUGGCUGUGGCUAGACUGCCUCUCUGGAUUCCUCGUCACUCAGCAGGGCGUCCCUGAGAGAAAUGCC was 1.78; that for AACGUAGGUGGUUUUCCCCUGAUAGUGCUAAGGGGGCCUGGAAGUUUGGACUUGGCAGAGCUCAACACAGCGUGGCAAAGUGGCUGUGGCUAGACCGCCUCUCUGGAUUCCUCGUCACUCAGCAGGGCACCUCUGAGAGAAAUGCC was 0.15.
The value for AACGCAGGUGGUUUUCCCCUGAUAGUGCUAAGGGGGCCUGGAAGUUUGGACUGGGCAGAGCCCAACACAGCGUGGCAAAGUGGCUGUGGCUAGACUGCCUCUCUUGAUUCCUCGUCACCCAGCAGGGCAUCUCUGAGAGAAAUGCC was 0; that for AACGUAGGUGGUUUUCCCCUGAUAGUGCUAGGGGGGCCUGGUAGUUUGGACUGGGCAGAGCUCAACACAGCGUGGCAAAGUGGCUGUGGCUAGACUGCCUCUCUGGACUCCUCGUCACUCAGCAGGGCAUCUCAGAGAGAAAUGCC was 0.77; that for AGCGUAGGUGGUCUUCCCCUGAUAGCGCUAAGGGGGCCUGGAAGUUUGGACUGGGCAGAGCUCAACUCAGCGUGGCAAAGUGGCUGUGGCUAGACUGCCCCUCUGGAUUCCUCGUCACUCAGCAGGGCUUCUCUGAGGGAAAUGCC was 1.53.
The same measure for AACGUAGGAGGUUUUCCCCUGAUAGUGCUAAGGGGGCCUGGAAGUUUGGACUGGGCAGAGCUCAACACAGCGUGGCAAAGUGGCUGUGACUAGACUGCCUCUCUGGACCCCUCGUCACUCAGCAGGGCAUCUCUGAGAGAAAUGCC: 0; for AACGUAGGUGGUUUUCCCCGGAUAGUGCUAAGGGGGCCUGGAAGCUUGGACUGGGCAGAGCUCAACACAGCGUGGCAAAGUGGCUGUGGCUAGACAGCCUCUCUGGAUUCCUCGUCACUCAGCAGGGCAUCUCUGAGAGAAAUGCC: 0.16.
As to AACGUAGGUGGUUUUCACCUGAUAGUGCUAAGGGGGCCUGGAAGUUUGGACUGGGCAGAGCUCAACACAGCGUGGCAAAGUGGCUGUGGCUAGACUGCCUCUCCGGAUUCCUCGUCACUCAGCAGGGCAUCUCUGAGAGAAAUGCC, the self-cleavage was 1.12.
Take AACGUAGGUGGUUCUCCCCUGAUAGUGCUAAGGGGGCCUGGAAGUUUGGACUGGGCAGAGCUCAACGCAGCGUGGCAAAGUGGCUGUGGCUAGACUGCCUCUCUGGAUUCCUCGUCACUCAGCAGGGCAUCUCUGAGAGAAAUGCC: the self-cleavage was 0.27.
The same measure for AACGUAGGAGGUUUUCCCCUGAUAGUGCUAAGGGGGCCUGGAAGUUUGGACUGGGCAGAGCUCAACACAGCGUGGCAAAGUGGCUGUGGCUAGACUGCCCCUCUGGAUUCCUCGUCACUCAGCAGGGCAUCUCUGAGAGAAAUGCC: 1.25.
The same measure for AACGUAGGUGGUUUUUCCCUGAUAGUGCUAAGGGGGCCUGGAAGUUUGGACUGGGCAGAGCUCAACACAGCGUGGCAAAGUGGCUGAGGCUAGACUGCCUCUCUGGAUUCCUCGUCGCUCAGCGGGGCAUCCCUGAGAGAAAUGCC: 0; for AACGUAGGUGGUUCUCCCCUGAUAGUGCUAAGGGGGCCUGGAAGUUUGGACUGGGCAGAGCUCGACACAGCGUGGCAGGGUGGCUGUGGCUAGACUGCCUCUCUGGAUUCCUCGUCACUCAGCUGGGCAUCUCUGAGAGAAAUGCC: 1.84.
The same measure for AACGUAGGUGGUUUUCCCUUGAUAGUGCUAAGGGGGCCUGGAAGCUUGGGCUGGGCAGAGCUCAACACAGCGUGGCAAAGUGGCUGUGGCUAGACUGCCUCUCUGGAUUCCUCGUCACUCAGCAGGGCAUCUCUGAGAGAAAUGCC: 0; for CGCGUAGGUGGUUUUCACCUGAUAGUGCUAAGGGGGCCUGGAAGUUUGGACUGGGCAGAGCUCAACACAGCGUGGCAAAGUGGCUGUGGCUAGACUGCCUCUCUGGAUUCCUCGUCCCUCAGCAGGGCAUCUCUGAGAGAGAUGCC: 0.99; for AACGUAGGUGGUUUUCCCCUGACAGUGCUAAGGGGGCCUGGAAGUUUGGACUGGGCAGAGCUCAACACAGCGUGGCAGAGUGGCUGUGGCUAGACUGCCUCUCUGGAUUCCUCGUCACUCAGCAGGGCAUCUCUGAGAGAAAUGCC: 2.92.
AACGUAGGUGGUUUUCCCCUGAUAGUGCUAAGGGGGCCUGGAAGUUUGGACUGGGCAGAGCUCAACUCAGCGUGGCAAAGUGGCUGUGGCUAGACUGCCUCCCUGGAUUCCUCGUCACUCAGCAGGGCAUCCCUGAGAGAAAUGCC: the self-cleavage amounted to 0.5.
The same measure for AACGUAGGUGGUUUUCCCCUGAUAGUGCUAAGGGGGCCUGGAAGUUUGGACUGGGCAGAGCUCAGCACAGCGAGGCAAAGUGGCUGUGGCUAGACUGCCUCUCUGGAUUCCUCGUCACUCAGCAGGGCAUCUCUGAGAGAAACGCC: 0.1; for CGCGUAGGUGGUUUUCCCCUGAUAGUGCUAAGGGGGCCUGGAAGUUUGGACUGGGCAGAGCUCAACACAGCGUGGCAAAGUGGCUGUGGCUAGACUGCCUCUCUGGAUUCCUCGUCACUCAGCAGGGCAUCUCUGAGAGAGAUGCC: 0.51; for AACGUAGGUGGUUUUCCCCUGAUAGUGCUAAGGGGGCCUGGAAGUUUGGACUGGGCAGAGCUCAACACAGCGUGGCUAAGUGGCUGUGGCUAGACUGCCUCUCUGGAUUCCUCGUCUCUCAGCAGGGCAUCUCUGAGAGAAAUGCC: 0.32.
AACGUAGGUGGUUCUCCCCUGAUAGUGCUAAGGGGGCCUGGAAGUUUGGACUGGGCAGAGCUCAACACAGCGUGGCAAAGUGGCUGUGGCUAGACUGCCUCUCUGGGUUCCUCGUCACUCAGCAGGGCAUCCCUGAGAGAGAUGCC: the self-cleavage turned out to be 1.02.
On to AACGUAGGUGGUUUUCCCCUGGUAGUGCUAAGGGGGCCUGGAAGUUUGGACUGGGCAGAGCUCAACACAGCGUGGCAAAGUGGCUGUGGCUAGACUGCCUCUCUGGAUUCCUCGUCACUCAGCAGGGCAUCUUUGAGAGAAAUGCC, for which the self-cleavage stood at 1.37.
The value for AACGUAGGAGGUUCUCCCCUGAUAGUGCUAAGGGGGCCUGGAAGUUCGGACUGGGCAGAGCUCAACACAGCGUGGCAAAGUGGCUGUGGCUAGACUGCCUCUCUGGAUUCCUCGUCACUCAGCAGGGCAUCUCUGAGAGAAAUGCC was 0.93; that for AACGUAGGUGGUUUUCCCCUGAUAGUGCUAAGGGGGCCUGGAGGUUUGGACUGGGCAGAGCUCAACACAGCGUGGCAAAGUGGCUGUGGCUAGACUGCCUCUCUGGAUUCCUCGUCACUCAGCAGGGCAUCUCUGAGGGAAGUGCC was 2.67.
Regarding AACGUAGGUGGUUUUCCCCUGAUAGUGCUAAGGGGGCCUGGAAGUUUGGACUGGGCAGAGCUCAACACAGCGUGGCAAAGAGGCUGUGGCUAGACUGCCUCCCUGGAUUCCUCGUCACUCAGCAGGGCAUCUCUGAGAGAAAUGCC, the self-cleavage came to 2.32.
The value for AACGUGGGUGGUUUUCCCCUGAUAGUGCUAAGGGGGCCUGGAAGUUUGGACUGGGCAGAGCUCAACACAGCGUGGCAAAGUGGCUGUGGCUAGACUGCCUCUCUGGAUUCCUCGUCACUCAGCAGGGCAUCUCUGGGAGAAAUGCC was 1.35; that for AACGUAGGCGGUUUUCCCCUGAUAGUGCUAAGGGGGCCAGGAAGUUUGGACUGGGCAGAGCCCAACACAGCGUGGCAAAGUGGCUGUGGCUAGACUGCCUCUCUGGAUUCCUCGUCACUCAGCAGGGCAUCUCUGAGAGAAAUGCC was 0.18.
